Results: the supplement of paper PMC10126150
Sequences with one replicate were seen in a single cluster, so their values are uncertain.

tested on: ATP; test: switch fluorescence ratio, 500 uM ATP over buffer (Cy3 cluster intensity, sum of 5 cycles each) (fold (ratio)); higher = stronger signal-on switching upon ATP binding; sequences stand for … in TCGTCGGCAGCGTCAGATGTGTATAAGAGACAGTTTTTTTTTTTTTTTTTTTTTTTTT…TC; settings: aptamer strand: ATP DNA aptamer (quencher-CACCTGGGGGAGTATTGCGGAGGAAGG + anchor), 100 nM annealed; ATP concentration: 500 uM; one replicate
Method in brief: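 Switching-strand clusters labelled with Cy3 on a modified Illumina MiSeq flow-cell were annealed to 100 nM quencher-labelled ATP aptamer, imaged in selection buffer, and re-imaged after 15 min with 500 uM ATP at 22 °C. This was done over five cycles with NaOH stripping and re-annealing in between. The fluorescence ratio is summed target-cycle over summed buffer-cycle Cy3 intensity per cluster, averaged per switch-domain sequence, excluding clusters outside 100-1000 RFU.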
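Further: ATP exposure 15 min at 22 °C before imaging.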

Sequence	switch fluorescence ratio
GGTGACTCGC	1.04
GACTCAGGG	0.954
CACATTGCTT	1.02
CATAAGGTGC	1.55
TCAAATCAGA	1.02
TACACATCCG	1.08
CGGTTTTGGA	0.972
GGGGGTTTTA	0.962
TCATAAGCGT	0.993
CCTGTATGCT	1.05
AGAGGCAAGT	1.02
AGCGTAGCGG	1.07
TCGACCAATT	1.39
AAACAGGTG	4
CAGATTGATT	0.962
CGTATATAAT	1.01
CGTGCATACT	1.45
CACAATTGGT	1.03
TCTTTTTAG	0.946
GGCCTCGGGA	1.04
CTGGCAGGTG	4.3
TTCCTCGGAC	2.24
TTGGCCAAGA	1.03
ATTGGGATAG	0.997
AACCGGGCGC	1.1
AGTTTATTTC	1.02

Sequence	switch fluorescence ratio
TGATTAG	0.984
CCCAGACCTG	0.968
GTATACGTCC	1.05
AAAGTATAGG	0.927
GGCAGTGCAG	0.967
TGTCGACAGG	0.95
GCGGTGGG	1.03
CTCGGCCTTC	1.41
TCTAGACGTG	0.976
CAAGTTATGG	0.952
CATTAAGACT	0.99
GCACAACAGG	1.23
AATTGCCAGG	1.14
AGGCGCCGGG	0.987
GGAGAAGAT	1.04
CATTACCAAG	1.02
AGGCACTTGG	1.03
TTCTGTGTAG	0.987
TTGACACGCA	1.14
CGGGAATG	1.06
ATTCTGGCCG	0.994
TACTATCGTC	0.985
ACGGAAATCT	1.13
TCGATAGAC	1.11
GTCGGACAGC	1.04
TTAAGTAACA	0.993

Sequence	switch fluorescence ratio
TTAGTTGATT	1.02
TGTTGTATCA	0.958
TACGCAACAA	2.18
CATGTCGGCG	1.02
CATCCTGCGC	3.7
TGATATCAGC	0.999
TGTGGGTCAG	1
CTTGATTCCT	1.01
ACGGTGCATA	1.12
GTAGGATTGG	0.997
GTAGGATGGA	0.978
GATGATTAGC	0.981
CTGTTTTAGT	1
CAAACTTTAT	0.995
AGAGAATATC	1.02
GTTCTCCCCT	1.16
CATAATGCCG	0.979
TTGTGGTTC	0.989
ACTAATATTT	1.01
GGGCTGACGA	1.19
TTTCCCGTTA	1.01
CGCATCAGGG	1.22
CGTGAGTCCT	1.01
TTGAGTTAAC	1.03
ACAGAATGAG	0.996
AACATAAGCA	1.03

Sequence	switch fluorescence ratio
TTCTATGTCG	0.97
TGTATAAGGC	1.01
CCTTAGCTAC	2.44
TCATTCC	1.29
TACGCGAAT	1.05
CTGATAATGG	1.02
CCTCTTGTGT	1.04
GATATCCGA	0.981
TTTCACTCG	1.04
AAATATCGGC	1
AATACGTTA	1.17
TTCCTGTATG	1.01
CTATCAGTA	1.03
TTTATTTTGA	0.99
TGGGACTGAA	1.02
ATGGAGGGAT	0.991
AATACATGAA	0.962
CGGATGGGTA	1.01
CATTTGCTGG	1.34
GCCTAATTTC	1
TAGAGTGAGC	0.936
CGATTTTGTC	1.01
CTCGGGAGAG	1.01
AATCGGACGT	0.945
TAGGATC	0.995
CGCCACCGC	1.14

Sequence	switch fluorescence ratio
TAGGTTTCCC	0.95
TATTGCCCAC	0.981
CGGGTTTCTG	0.982
TGAATATAAT	0.982
AAATCGTTTG	1.02
GTAGCGAATT	1.17
CACGAGTCCT	0.995
ATTTCTGGCG	0.982
GGATTCAAGC	1.02
GTATGACATA	1.04
TCACCGAGGA	1.07
GCTATATTCG	1.01
GATGAAACTG	0.922
ACCTTTAAGA	1
CATCTGACTA	1.05
CAGAGTCAGC	0.961
ATAGAGTAAG	1.01
CTTGGTATGC	1
AATTAATTTG	0.999
AAAATACTGC	1.09
CGGTGCGGAT	1.01
TCGTTGGTAA	1.03
ACTAGACTCA	1.1
AGATTTGGCC	1.03
ATCGTAAAAT	1.03
CGCCTTTAGG	1.04

Sequence	switch fluorescence ratio
GCGCCTTACA	1.04
AAAACGCTGC	1.07
TGTGACAGGG	1.01
TCTAATCATT	1
CGTCTATCGG	0.975
AAGGGGCTAC	1.08
AGCAAACTAG	1.09
GCATGGATTG	0.946
AGTTTCGGGG	1
GTTGGCTACT	0.982
TCGACAACAG	0.994
CCCCTGTGTC	1.94
CTGGTATAAG	0.98
CATTGAACTA	0.973
TCCTCATTGG	1
CTAAGCTGCT	1.02
GGTGGAGGTG	1.09
ATAGCAAAAC	3.68
CACGTCACAA	1.46
TTATTACCGT	1.02
TTACCCGATT	0.992
ACGAGGTTTG	0.976
GCTTTAAATA	0.963
ACTGAGCGGG	1.01
TTTAAAGTTC	1.01
GGGATGCGGA	1.11

Sequence	switch fluorescence ratio
ATAATAACGA	1.03
ATTAAAGAAC	1.03
GTCTTAGGGG	1
GGCATCTAGC	0.986
TCCCTAGTAA	1.26
CACCCTGCAA	3.81
AGGCTACGTT	1.03
GGCCAGGTTT	1.05
TCACGAGATG	1.05
TTTGCGAGAT	0.987
TGCATTGAG	0.97
CTAGGGATCG	1.02
CGGTTCTGG	0.963
TTTTTCCGAC	1.15
GGGTGACACG	0.965
TTCACTTGGC	1.03
TGGCTTCCG	1.04
TTAGGATACC	1.02
ACTAAATTTA	0.991
TGAACTAT	1.02
CGCCGGCCAC	1.12
ATGGTATTT	1.04
TACATGATAA	1.05
TGAACTTCG	0.98
TATTGTAGCC	1.17
GTTGCCGATT	0.987

Sequence	switch fluorescence ratio
GCGGCCTGCT	0.984
CCGGGCCACG	1.03
TCAGGGCTGA	0.984
AAAGTCCGGA	1.04
GTGTAATGTG	1.04
TATGTTCTCA	0.99
TCCCTGTGCC	1.09
CAATCATACG	1.02
CCTGGTGCAG	1.13
AGCCGGATCT	0.952
GATGGAGTC	1.01
GGCAGTGTTC	0.98
ACATGCGCTA	1.2
ACTAAAACAG	1.08
TGGTAAGAGT	1.02
CGGCCCTGCG	1
GAAACGTGCA	1.03
TGGCGGAAAC	1.12
ATGTTGGCGC	0.994
